Assay results as given in PMC12820563.
This is one part of the list. The list includes weakly bound sequences.

biological target: T1, MBP-FoxP3dN (UniProt Q99JB6); assay: PD-seq (MBP pull-down with sequencing); conditions: 20 mM Tris-HCl pH 7.5, 100 mM NaCl, 1.5 mM MgCl2, 0.4 uM protein, 0.1 uM dsDNA library, 30 min, room temperature, amylose pull-down; high values mean tight binding; double strand, one strand shown
T1 sequence: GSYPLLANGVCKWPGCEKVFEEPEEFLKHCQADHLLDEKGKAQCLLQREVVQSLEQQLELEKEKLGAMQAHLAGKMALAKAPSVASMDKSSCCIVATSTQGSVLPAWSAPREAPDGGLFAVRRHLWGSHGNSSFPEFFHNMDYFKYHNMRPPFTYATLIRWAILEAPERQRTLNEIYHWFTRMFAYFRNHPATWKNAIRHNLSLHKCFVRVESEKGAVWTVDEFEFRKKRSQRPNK

Sequence	binding signal (RPM ratio (pull-down/input))
GATGATTGTTCTCCCAGCTGATGAATTACCCCGCTCGAGTAAACAAATTTTCCTAATCTTTCTGTTCAAGCGCCATCTAC	0.235
GATGATTGTTCTCCCAGCTGATGAATTGCGTTTCTCGAGTAAACAAATTTTCCTAATCTTTCTGTTCAAGCGCCATCTAC	1.96
GATGATTGTTCTCCCAGCTGATGAATTGTGCATGTCGAGTAAACAAATTTTCCTAATCTTTCTGTTCAAGCGCCATCTAC	7.05
GATGATTGTTCTCCCAGCTGATGAATTTAATTGATCGAGTAAACAAATTTTCCTAATCTTTCTGTTCAAGCGCCATCTAC	1.66
GATGATTGTTCTCCCAGCTGATGAATTGTTCCATTCGAGTAAACAAATTTTCCTAATCTTTCTGTTCAAGCGCCATCTAC	0.579
GATGATTGTTCTCCCAGCTGATGAATTTGAAACGTCGAGTAAACAAATTTTCCTAATCTTTCTGTTCAAGCGCCATCTAC	0.266
GATGATTGTTCTCCCAGCTGATGAATTTAAGTTATCGAGTAAACAAATTTTCCTAATCTTTCTGTTCAAGCGCCATCTAC	0.821
GATGATTGTTCTCCCAGCTGATGAATTCGAATACTCGAGTAAACAAATTTTCCTAATCTTTCTGTTCAAGCGCCATCTAC	0.672
GATGATTGTTCTCCCAGCTGATGAATTTGTCTACTCGAGTAAACAAATTTTCCTAATCTTTCTGTTCAAGCGCCATCTAC	5.77
GATGATTGTTCTCCCAGCTGATGAATTTATATGGTCGAGTAAACAAATTTTCCTAATCTTTCTGTTCAAGCGCCATCTAC	1.94
GATGATTGTTCTCCCAGCTGATGAATTAAGCTGGTCGAGTAAACAAATTTTCCTAATCTTTCTGTTCAAGCGCCATCTAC	0.569
GATGATTGTTCTCCCAGCTGATGAATTTTTTCACTCGAGTAAACAAATTTTCCTAATCTTTCTGTTCAAGCGCCATCTAC	0.248
GATGATTGTTCTCCCAGCTGATGAATTAGTATCCTCGAGTAAACAAATTTTCCTAATCTTTCTGTTCAAGCGCCATCTAC	2.39
GATGATTGTTCTCCCAGCTGATGAATTTATTTCCTCGAGTAAACAAATTTTCCTAATCTTTCTGTTCAAGCGCCATCTAC	3.45
GATGATTGTTCTCCCAGCTGATGAATTTGCTACATCGAGTAAACAAATTTTCCTAATCTTTCTGTTCAAGCGCCATCTAC	0.944
GATGATTGTTCTCCCAGCTGATGAATTGCTTAATTCGAGTAAACAAATTTTCCTAATCTTTCTGTTCAAGCGCCATCTAC	0.562
GATGATTGTTCTCCCAGCTGATGAATTAGGGTGGTCGAGTAAACAAATTTTCCTAATCTTTCTGTTCAAGCGCCATCTAC	0.516
GATGATTGTTCTCCCAGCTGATGAATTGTTCCACTCGAGTAAACAAATTTTCCTAATCTTTCTGTTCAAGCGCCATCTAC	0.496
GATGATTGTTCTCCCAGCTGATGAATTATTAACATCGAGTAAACAAATTTTCCTAATCTTTCTGTTCAAGCGCCATCTAC	0.662
GATGATTGTTCTCCCAGCTGATGAATTACTCGGGTCGAGTAAACAAATTTTCCTAATCTTTCTGTTCAAGCGCCATCTAC	0.235
GATGATTGTTCTCCCAGCTGATGAATTTGTAGAATCGAGTAAACAAATTTTCCTAATCTTTCTGTTCAAGCGCCATCTAC	0.778

Sequence	binding signal (RPM ratio (pull-down/input))
GATGATTGTTCTCCCAGCTGATGAATTGGATTTTTCGAGTAAACAAATTTTCCTAATCTTTCTGTTCAAGCGCCATCTAC	0.676
GATGATTGTTCTCCCAGCTGATGAATTCCCAAATTCGAGTAAACAAATTTTCCTAATCTTTCTGTTCAAGCGCCATCTAC	0.278
GATGATTGTTCTCCCAGCTGATGAATTTTGGAGGTCGAGTAAACAAATTTTCCTAATCTTTCTGTTCAAGCGCCATCTAC	0.257
GATGATTGTTCTCCCAGCTGATGAATTGTCTTTATCGAGTAAACAAATTTTCCTAATCTTTCTGTTCAAGCGCCATCTAC	1.08
GATGATTGTTCTCCCAGCTGATGAATTAACGTGTTCGAGTAAACAAATTTTCCTAATCTTTCTGTTCAAGCGCCATCTAC	0.622
GATGATTGTTCTCCCAGCTGATGAATTACCTGTTTCGAGTAAACAAATTTTCCTAATCTTTCTGTTCAAGCGCCATCTAC	0.472
GATGATTGTTCTCCCAGCTGATGAATTGTGTGACTCGAGTAAACAAATTTTCCTAATCTTTCTGTTCAAGCGCCATCTAC	2.06
GATGATTGTTCTCCCAGCTGATGAATTACCAACATCGAGTAAACAAATTTTCCTAATCTTTCTGTTCAAGCGCCATCTAC	2.19
GATGATTGTTCTCCCAGCTGATGAATTTAGCTACTCGAGTAAACAAATTTTCCTAATCTTTCTGTTCAAGCGCCATCTAC	1.83
GATGATTGTTCTCCCAGCTGATGAATTCTTCGTGTCGAGTAAACAAATTTTCCTAATCTTTCTGTTCAAGCGCCATCTAC	0.326
GATGATTGTTCTCCCAGCTGATGAATTCAGGATCTCGAGTAAACAAATTTTCCTAATCTTTCTGTTCAAGCGCCATCTAC	0.286
GATGATTGTTCTCCCAGCTGATGAATTGCGTGATTCGAGTAAACAAATTTTCCTAATCTTTCTGTTCAAGCGCCATCTAC	1.86
GATGATTGTTCTCCCAGCTGATGAATTCGACCAGTCGAGTAAACAAATTTTCCTAATCTTTCTGTTCAAGCGCCATCTAC	0.241
GATGATTGTTCTCCCAGCTGATGAATTCTAACGATCGAGTAAACAAATTTTCCTAATCTTTCTGTTCAAGCGCCATCTAC	0.317
GATGATTGTTCTCCCAGCTGATGAATTAGGTCAATCGAGTAAACAAATTTTCCTAATCTTTCTGTTCAAGCGCCATCTAC	0.289
GATGATTGTTCTCCCAGCTGATGAATTACAGCGATCGAGTAAACAAATTTTCCTAATCTTTCTGTTCAAGCGCCATCTAC	0.555
GATGATTGTTCTCCCAGCTGATGAATTAAAAAAGTCGAGTAAACAAATTTTCCTAATCTTTCTGTTCAAGCGCCATCTAC	0.175
GATGATTGTTCTCCCAGCTGATGAATTATGGCAGTCGAGTAAACAAATTTTCCTAATCTTTCTGTTCAAGCGCCATCTAC	0.623
GATGATTGTTCTCCCAGCTGATGAATTATAAAGTTCGAGTAAACAAATTTTCCTAATCTTTCTGTTCAAGCGCCATCTAC	0.282
GATGATTGTTCTCCCAGCTGATGAATTAAGATAGTCGAGTAAACAAATTTTCCTAATCTTTCTGTTCAAGCGCCATCTAC	0.401
GATGATTGTTCTCCCAGCTGATGAATTTACAGAATCGAGTAAACAAATTTTCCTAATCTTTCTGTTCAAGCGCCATCTAC	0.328

Sequence	binding signal (RPM ratio (pull-down/input))
GATGATTGTTCTCCCAGCTGATGAATTGACCACATCGAGTAAACAAATTTTCCTAATCTTTCTGTTCAAGCGCCATCTAC	0.526
GATGATTGTTCTCCCAGCTGATGAATTATGTGCTTCGAGTAAACAAATTTTCCTAATCTTTCTGTTCAAGCGCCATCTAC	1.37
GATGATTGTTCTCCCAGCTGATGAATTATGACGCTCGAGTAAACAAATTTTCCTAATCTTTCTGTTCAAGCGCCATCTAC	0.68
GATGATTGTTCTCCCAGCTGATGAATTCACATCGTCGAGTAAACAAATTTTCCTAATCTTTCTGTTCAAGCGCCATCTAC	0.606
GATGATTGTTCTCCCAGCTGATGAATTCCGCGTTTCGAGTAAACAAATTTTCCTAATCTTTCTGTTCAAGCGCCATCTAC	3.73
GATGATTGTTCTCCCAGCTGATGAATTATTCTCCTCGAGTAAACAAATTTTCCTAATCTTTCTGTTCAAGCGCCATCTAC	0.308
GATGATTGTTCTCCCAGCTGATGAATTTACCAACTCGAGTAAACAAATTTTCCTAATCTTTCTGTTCAAGCGCCATCTAC	0.591
GATGATTGTTCTCCCAGCTGATGAATTCCGGAACTCGAGTAAACAAATTTTCCTAATCTTTCTGTTCAAGCGCCATCTAC	0.206
GATGATTGTTCTCCCAGCTGATGAATTTAAGGGGTCGAGTAAACAAATTTTCCTAATCTTTCTGTTCAAGCGCCATCTAC	0.356
GATGATTGTTCTCCCAGCTGATGAATTTTCCGGGTCGAGTAAACAAATTTTCCTAATCTTTCTGTTCAAGCGCCATCTAC	0.139
GATGATTGTTCTCCCAGCTGATGAATTAGACGTATCGAGTAAACAAATTTTCCTAATCTTTCTGTTCAAGCGCCATCTAC	0.655
GATGATTGTTCTCCCAGCTGATGAATTTGGCTAGTCGAGTAAACAAATTTTCCTAATCTTTCTGTTCAAGCGCCATCTAC	1.03
GATGATTGTTCTCCCAGCTGATGAATTAGAAACCTCGAGTAAACAAATTTTCCTAATCTTTCTGTTCAAGCGCCATCTAC	0.26
GATGATTGTTCTCCCAGCTGATGAATTCAGAACGTCGAGTAAACAAATTTTCCTAATCTTTCTGTTCAAGCGCCATCTAC	0.243
GATGATTGTTCTCCCAGCTGATGAATTATTACACTCGAGTAAACAAATTTTCCTAATCTTTCTGTTCAAGCGCCATCTAC	0.537
GATGATTGTTCTCCCAGCTGATGAATTGACCGACTCGAGTAAACAAATTTTCCTAATCTTTCTGTTCAAGCGCCATCTAC	0.245
GATGATTGTTCTCCCAGCTGATGAATTCGATGACTCGAGTAAACAAATTTTCCTAATCTTTCTGTTCAAGCGCCATCTAC	1.45
GATGATTGTTCTCCCAGCTGATGAATTCTATAAGTCGAGTAAACAAATTTTCCTAATCTTTCTGTTCAAGCGCCATCTAC	0.287
GATGATTGTTCTCCCAGCTGATGAATTTTCTGTATCGAGTAAACAAATTTTCCTAATCTTTCTGTTCAAGCGCCATCTAC	0.456
GATGATTGTTCTCCCAGCTGATGAATTTCGGCTGTCGAGTAAACAAATTTTCCTAATCTTTCTGTTCAAGCGCCATCTAC	0.375
GATGATTGTTCTCCCAGCTGATGAATTCTCCACCTCGAGTAAACAAATTTTCCTAATCTTTCTGTTCAAGCGCCATCTAC	0.226
